# Measured values taken from patent publication US6900216B2, “Dihydroimidazo[2,1-b]thiazole and dihydro-5h-thiazolo[3,2-A]pyrimidines as antidepressant agents” (Knoll GmbH, priority 2000, dated 2005).
# Read-outs that look alike come from different tables or passages of the source. Some values that stand alone complete this part of the results.
smiles,measurement,setting,value
"CC1=C(c2cccc3sccc23)N2CCN=C2S1.Cl [Example 9, 3-(benzo[b]thiophen-4-yl)-2-methyl-5,6-dihydroimidazo[2,1-b]thiazole hydrochloride]",melting point,"Method A, first crop",235 to 238 °C
same,melting point,"Method A, second crop from liquor",234 to 237 °C
same,melting point,"from combined hydrobromide samples, basified",242 to 245 °C
